Data reported in PubChem BioAssay AID463173 (ICCB-Longwood Screening Facility, Harvard Medical School, 2010).
About 4,300 (8.3%) of roughly 52,000 compounds were called active. No stated cut-off is given here; in the data, active means survival mostly below about 52% (no sharp cut-off); inactive means mostly above about 56%. The list shows a part of the results.

system: DeltatarO mutant; assay: S. aureus survival, RN4220 and DeltatarO strains – OD600, teichoic acid synthesis inhibitors, primary screen (AID 463173); details: S. aureus RN4220 wild type/DeltatarO growth, OD600, 18 h, stronger effect = lower value, screened at 18.75 µg/mL (by protocol)

Compound | survival
Cc1csc2nc(COC(=O)CNC(=O)c3ccc(F)cc3)cc(=O)n12 | inactive: 71%
COc1ccc(-n2nc3ccc(NC(=O)c4c(OC)cccc4OC)cc3n2)cc1 | inactive: 135%
O=C(Cn1c(=O)n(-c2ccc(F)cc2)c(=O)c2sc3ccccc3c21)NC1CCCC1 | inactive: 90%
CC(OC(=O)C1=Cc2ccccc2OC1)C(=O)NCC1CCCO1 (configuration not stated) | inactive: 95%
CCC1CCCCN1S(=O)(=O)c1ccc(S(=O)(=O)n2cnc3cc(C)c(C)cc32)cc1 (configuration not stated) | inactive: 102%
CCc1nc2ccccc2n2c(-c3ccc(C)cc3)c3c(=O)n(C)c(=O)n(C)c3c12 | inactive: 68%
COc1ccccc1CNC(=O)C(C)n1ccc2cc(S(=O)(=O)N3CCCC3)ccc21 (configuration not stated) | inactive: 81%
COc1ccc(CNC(=O)c2ccc3nc(CCc4ccccc4)oc3c2)cc1 | active: 0%
Cc1ccc(-c2[nH]c3c(c2-c2c(-n4cccc4)n(C)c(=O)[nH]c2=O)c(=O)[nH]c(=O)n3C)cc1 | inactive: 65%
CCOC(=O)c1c(C)oc2nc(C)nc(N3CCN(c4ccccc4F)CC3)c12 | inactive: 90%
CCOc1ccc(NC(=O)C2CCN(c3nnc(C)c4c(C)n(-c5ccccc5)nc34)CC2)cc1 | inactive: 67%
Cc1ccc(NC(=O)CSc2nc3c([nH]c4ccccc43)c(=O)n2-c2ccccc2)cc1Cl | inactive: 82%
Cc1ccc(C2Nc3cc(C)c(C)cc3-n3c(-c4ccccc4)c4c(=O)n(C)c(=O)n(C)c4c32)o1 (configuration not stated) | inactive: 68%
Cc1[nH]n2c(=O)cc(-c3ccc(Cl)cc3)nc2c1-c1ccccc1 | active: 3%
Cn1c(=O)c2c(nc(N3CCOCC3)n2Cc2cccc(Br)c2)n(C)c1=O | inactive: 80%
COc1ccc(N2CCN(C(CNC(=O)C(=O)NCc3cccnc3)c3cccnc3)CC2)cc1 (configuration not stated) | inactive: 102%
Cc1ccccc1CNC(=O)Cc1ccc(NC(=O)N2CCCCc3ccccc32)cc1 | inactive: 76%
CCOc1ccc(C(=O)c2cn(CC(=O)Nc3cccc(OC)c3)c3cc4c(cc3c2=O)OCCO4)cc1 | inactive: 107%
Cc1nn2c(-c3ccco3)ccnc2c1-c1ccc(Br)cc1 | inactive: 81%
Cc1c(C(=O)N2CCCCC2)c(S(=O)(=O)NCc2ccc(N(C)C)cc2)c(C)n1C | inactive: 120%
COc1ccc(-c2cc(C(=O)Oc3ccc(C)cc3)c3cc(C)ccc3n2)cc1 | active: 22%
O=C(CN1C(=O)COc2ccc(S(=O)(=O)N3CCCCCC3)cc21)Nc1cccc(Cl)c1 | inactive: 60%

Compound | survival
CC(c1ccccc1)n1cc(C(=O)NCCCN2CCCC2=O)nn1 (configuration not stated) | inactive: 93%
CC1C(=O)CCNC1c1ccccc1 (configuration not stated) | inactive: 65%
Cc1cc(=O)n(C(C)C(=O)N2CCCc3ccccc32)c2c1c(C)nn2-c1ccccc1 (configuration not stated) | inactive: 115%
Cc1ccc2[nH]cc(S(=O)(=O)c3ccc(C)c(C)c3)c(=O)c2c1 | inactive: 81%
N#C/C(=C\c1ccc[nH]1)C(=O)N1CCc2ccccc2C1 | inactive: 72%
CC1Cn2c(C(=O)NCCc3ccc(Cl)cc3)cc3cccc(c32)S1 (configuration not stated) | inactive: 86%
Cc1ccc(F)cc1NC(=O)CCc1c(C)nn(-c2ccc(N3CCOCC3)nn2)c1C | inactive: 97%
COc1ccc(NC(=O)CCS(=O)(=O)c2nc(-c3ccc4c(c3)OCO4)cc(C(F)(F)F)n2)cc1 | inactive: 103%
COc1ccc(C)cc1NC(=O)CCc1c(C)nn(-c2ccc(N3CCCCC3)nn2)c1C | inactive: 78%
Cc1ccc(/C=C/c2onc(C)c2S(=O)(=O)N2CCC(C(=O)N3CCOc4ccc(C)cc43)CC2)cc1 | inactive: 123%
Cc1c(C(=O)N2CCCC2)oc2c1-c1nn(CC(=O)NCc3ccccc3Br)cc1CC2 | inactive: 72%
CSc1ccc(C2CC(=O)Oc3c2c(=O)n(C)c2ccccc32)cc1 (configuration not stated) | inactive: 63%
CCc1nn2c(=O)cc(COC(=O)c3ccc(NC(=O)CCc4ccccc4)cc3)nc2s1 | inactive: 99%
Nc1ccc(NC(=O)c2cccc(C(=O)Nc3ccc(N)cc3Cl)c2)c(Cl)c1 | inactive: 148%
Cc1c(C(=O)NN=C2CCCCCC2)nnn1-c1nonc1N | inactive: 113%
COc1cccc(C2(O)CCN(C(=O)C3CCC3)CC2)c1 | inactive: 102%
O=C(Nc1cccnc1)c1ccccc1Oc1ccccc1 | active: 65%
Cc1ccc(-c2nnc(Nc3ccc(OC(F)(F)Cl)cc3)c3ccccc23)cc1S(=O)(=O)NC(C)(C)CO | inactive: 57%
CC(=O)N1CCc2c(sc3nc(SCC(C)C)n(-c4ccc(C)c(Cl)c4)c(=O)c23)C1 | active: 45%
Cc1nc2scc(C)n2c(=O)c1S(=O)(=O)Nc1ccc(N2CCN(S(C)(=O)=O)CC2)cc1 | inactive: 84%
COc1ccccc1N1CCN(C(=O)c2cnn(-c3cccc(Cl)c3)c2C2CCN(C(=O)OC(C)(C)C)CC2)CC1 | inactive: 75%
C#CC(C)(CC)NC(=O)Cn1nnc(-c2ccc(OCc3ccccc3C)cc2)n1 (configuration not stated) | inactive: 125%

Compound | survival
COc1ccccc1CNc1nc(-c2ccco2)nn1C(=O)c1cc(OC)c(OC)c(OC)c1 | inactive: 49%
CCc1ccccc1NC(=O)c1cc(S(=O)(=O)N2CCc3ccccc32)ccc1F | inactive: 95%
Cc1ccccc1CNC(=O)C1=Cc2ccccc2OC1 | inactive: 80%
Cc1nn(C(C)C(=O)Nc2ccc(C(C)C)cc2)c(=O)c2c1sc1ccccc12 (configuration not stated) | active: 58%
CCc1nc(SC)ncc1C(=O)N1CCN(c2cc(Cl)ccc2C)CC1 | inactive: 80%
COc1cc(-c2nc(SCC(=O)Nc3ccc(C)cc3)c(-c3ccc(F)cc3)[nH]2)cc(OC)c1OC | inactive: 91%
CCCN(CCC)CCCNC(=O)c1cnn(-c2ccc(F)cc2)c1-n1cccc1 | inactive: 112%
Cc1cc(=O)oc2cc(OCC(=O)NCc3ccco3)ccc12 | inactive: 74%
O=C(Nc1nnc(-c2cc(Cl)ccc2Cl)o1)c1ccc2c(c1)OCCO2 | inactive: 87%
CCCc1nc2ccc(NC(=O)c3ccco3)cc2c(=O)n1Cc1ccccc1Cl | inactive: 101%
CCc1ccc(NS(=O)(=O)c2ccc3oc(=O)c4ncn(CC)c4c3c2)cc1 | inactive: 94%
CCOC(=O)C1CCC(CN(Cc2ccc(OC)cc2)S(=O)(=O)c2ccc(F)c(C(=O)Nc3ccc(C)c(C)c3)c2)CC1 (configuration not stated) | inactive: 77%
COc1ccc(-n2c(Cc3ccccc3)nnc2SCc2nc(-c3cccs3)no2)cc1 | inactive: 65%
O=C(CCCc1ccccc1)N1CCN(c2ccccn2)CC1 | inactive: 91%
O=c1cc(CSc2ncn[nH]2)[nH]c2ccc(F)cc12 | inactive: 78%
CCc1nc2ccccc2n1CCO | inactive: 77%
CC(=O)Nc1ccccc1OC(=O)N1CCOCC1 | inactive: 66%
COc1cccc(C2c3c(oc4cc(C)cc(C)c4c3=O)C(=O)N2CCc2ccc(OC)c(OC)c2)c1 (configuration not stated) | inactive: 60%
COc1ccc(NC(=O)CCS(=O)(=O)c2nc(-c3cccs3)cc(C(F)(F)F)n2)cc1 | inactive: 81%
CCCc1cc(=O)n2c(C(=O)Nc3ccc(OCC)cc3)c(C(=O)Nc3ccc(C)cc3)sc2n1 | inactive: 55%
COc1ccccc1CNC(=O)CCC1N=C2c3ccccc3N=C(SCC(=O)Nc3ccc(F)cc3)N2C1=O (configuration not stated) | inactive: 84%
Cc1ccc2c(c1)c1c(c(=O)n(-c3cccc(Cl)c3)c(=O)n1CC(=O)NCCC1=CCCCC1)n2C | inactive: 72%

Compound | survival
CCn1c(SCc2ccccc2C)nc(=O)c2c(C(=O)OC)cc(C3CC3)nc21 | inactive: 71%
CC(C(=O)O)N1c2cccc3cccc(c23)S1(=O)=O (configuration not stated) | inactive: 98%
COc1ccc(CNc2nc(-c3ccccc3)nn2S(=O)(=O)c2ccccc2)cc1 | inactive: 50%
CN(CC(=O)NCc1ccc(Cl)cc1)S(=O)(=O)c1ccc2[nH]c3c(c2c1)CCCC3 | inactive: 97%
CCn1cnc2sc(C(=O)Nc3ccccc3)c(C)c2c1=O | inactive: 87%
CC(=O)Nc1cc(-c2nc3cc(Cl)ccc3o2)ccc1C | inactive: 51%
Cc1ccc(Cl)cc1Nc1nn2c(=O)c3ccc(C(=O)Nc4ccc(F)cc4)cc3nc2s1 | inactive: 97%
Cc1ccc(NC(=O)CSCC(=O)O)cc1 | inactive: 96%
Cc1cc(Cl)ccc1NC(=O)Cn1nc(C)c2c(C)n(-c3ccccc3)nc2c1=O | inactive: 63%
CN(C)C1(CNC(=O)COc2ccc([N+](=O)[O-])cc2)CCCCC1 | inactive: 102%
O=C(CN1C(=O)c2ccccc2C1=O)Nc1cccnc1 | inactive: 76%
CCN(CC)S(=O)(=O)c1ccc2c(c1)N(CC(=O)N1CCN(c3cccc(Cl)c3)CC1)C(=O)CO2 | inactive: 74%
CCC1CN(C(=O)N2CCC(C(=O)NCCc3cc(OC)ccc3OC)CC2)c2ccccc2O1 (configuration not stated) | inactive: 78%
O=C(NN=C1CCCCC1)c1n[nH]c2c1CCC2 | inactive: 97%
CCn1c(CN2CCOCC2)nc2cc(NC(=O)c3ccccc3[N+](=O)[O-])ccc21 | inactive: 86%
O=C(Cn1nnc(-c2ccccc2NC(=O)c2cnccn2)n1)Nc1ccc2c(c1)OCCO2 | inactive: 105%
CCN(C(=O)Cn1c(=O)n(CCCS(=O)(=O)C2CCCCC2)c(=O)c2ccccc21)c1cccc(C)c1 | inactive: 87%
COc1cccc(-n2cc(C(=O)Nc3cccc(C(F)(F)F)c3)c3ccccc3c2=O)c1 | inactive: 61%
COc1ccccc1N1CCN(C(=O)Cn2ncc3ccsc3c2=O)CC1 | inactive: 114%
CC(C)Oc1ccc(CNC(=O)c2ccc(CS(=O)c3cccc(Cl)c3)o2)cc1 (configuration not stated) | active: 52%
Cc1ccc(NC(=O)N2CCc3cc(S(=O)(=O)N4CCC(C)CC4)ccc32)cc1 | inactive: 96%
